Measurements taken from PubChem BioAssay AID588591 (National Center for Advancing Translational Sciences (NCATS), 2011).
Screen size: about 390,000 compounds; about 4,700 (1.2%) were called active. Inconclusive results, whose numbers are uncertain, are shown with a selection of clear calls. Calls come from the whole dose curve; as a rule, active = well fitted inhibition curve with a large enough effect; inconclusive = small, poorly fitted or top-dose-only effect, or another doubt; inactive = no such curve, though single readings can be large or run the other way. Potencies beside an inconclusive call are fits to weak or partial responses and may not hold up.

The molecules below were run against DNA polymerase eta (Homo sapiens) (UniProt Q9Y253) (assay: qHTS for Inhibitors of Polymerase Eta). Settings: recombinant Pol eta, fluorescent DNA replication assay; series mostly up to 114 µM.
Sequence of UniProt Q9Y253 (Q9Y253 whole entry, looked up): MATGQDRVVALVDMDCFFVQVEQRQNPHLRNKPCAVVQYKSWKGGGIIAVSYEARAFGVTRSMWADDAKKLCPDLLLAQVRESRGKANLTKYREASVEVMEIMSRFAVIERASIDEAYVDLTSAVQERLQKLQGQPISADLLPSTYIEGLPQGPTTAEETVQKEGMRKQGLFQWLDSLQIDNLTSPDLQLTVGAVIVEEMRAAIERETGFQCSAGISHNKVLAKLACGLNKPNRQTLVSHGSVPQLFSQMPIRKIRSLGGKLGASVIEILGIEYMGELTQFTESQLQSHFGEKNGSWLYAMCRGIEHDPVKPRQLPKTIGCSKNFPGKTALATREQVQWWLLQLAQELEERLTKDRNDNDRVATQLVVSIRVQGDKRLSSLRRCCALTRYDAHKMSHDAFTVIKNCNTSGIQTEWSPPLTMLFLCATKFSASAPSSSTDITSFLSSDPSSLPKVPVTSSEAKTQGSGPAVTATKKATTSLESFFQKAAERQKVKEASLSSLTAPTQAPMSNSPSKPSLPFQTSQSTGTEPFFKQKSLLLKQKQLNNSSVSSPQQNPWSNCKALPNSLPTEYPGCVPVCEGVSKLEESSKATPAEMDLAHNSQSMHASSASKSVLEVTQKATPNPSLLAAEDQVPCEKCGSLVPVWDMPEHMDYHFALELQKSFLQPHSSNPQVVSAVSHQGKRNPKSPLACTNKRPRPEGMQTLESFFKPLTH
Method in brief: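 Pol eta (10 nM) was preincubated with compounds for 15 min at room temperature, after which fluorescent replication substrate (50 nM final) was added to start the reaction. Fluorescence was read kinetically at 0 and 10 min.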
Potency is the fitted concentration of half-maximal effect; tags give direction and shape of the fitted curve.

SMILES | Potency
O=C(N/N=C/c1ccc2c(c1)OCO2)c1ccc2ccccc2n1 | inconclusive: 15.8 µM [inhibitor, full curve, poor fit]
COc1ccc(C(=O)c2cn(CC(=O)Nc3cc(OC)cc(OC)c3)c3ccc(OC)cc3c2=O)cc1 | active: 79.4 µM
COc1ccc2cc3cc(C(=O)Nc4ccc5c(c4)OCCO5)oc3nc2c1 | active: 11.2 µM
CC[n+]1c(/C=C/N(C)c2ccccc2)n(-c2ccccc2)c2ccc(-c3nc4ccccc4s3)cc21 | inconclusive: 10 µM [inhibitor, partial curve, poor fit]
Cc1ccc(NCCN(C)C)c2c(=O)c3cc(O)ccc3sc12 | inconclusive: 14.1 µM [inhibitor, partial curve, poor fit]
COc1ccc(N2CCOCC2)c(NC(=O)c2cccc3ccccc23)c1 | inconclusive: 89.1 µM [inhibitor, partial curve, poor fit]
Cc1nc2c(C(=O)NCCc3ccccc3Cl)c[nH]n2c(=O)c1Cl | inconclusive: 44.7 µM [inhibitor, partial curve]
O=C(Cn1cnc2sc(-c3ccccc3)cc2c1=O)NCc1ccco1 | active: 7.08 µM
Cc1ccc2oc(-c3ccc(C)c(NC(=O)/C=C/c4ccco4)c3)nc2c1 | inconclusive: 89.1 µM [inhibitor, single point]
CCCC(=O)Nc1ccc(C(=O)NNC(=O)COc2ccc(Br)c(C)c2)cc1 | inconclusive: 14.1 µM [inhibitor, partial curve]
CCN(CC)CCNCc1cc(Cl)c(OCC(=O)Nc2ccccc2)c(OC)c1 | inconclusive: 100 µM [inhibitor, partial curve, poor fit]
COc1ccccc1CN1C[C@@H]2C[C@@H](c3cccc(O)c3)N3CCC[C@@]23C1=O | inconclusive: 79.4 µM [inhibitor, partial curve, poor fit]
NS(=O)(=O)c1ccc(N/N=C/c2ccc(O)cc2O)c([N+](=O)[O-])c1 | inconclusive: 56.2 µM [inhibitor, partial curve, poor fit]
COc1ccc(-c2ccc(-c3noc(-c4cccs4)n3)c(OC)n2)cc1 | inconclusive: 25.1 µM [inhibitor, partial curve]
Cc1ccc(-c2noc(CNC(=O)c3ccc(C)c(Cl)c3)n2)cc1 | inconclusive: 89.1 µM [inhibitor, partial curve, poor fit]
O=C(CCCN1C(=O)/C(=C/c2ccco2)SC1=S)Nc1ccccc1C(=O)O | active: 11.2 µM
CCOC(=O)c1ccc(NC(=O)COc2coc(CN3CCc4ccccc43)cc2=O)cc1 | inconclusive: 22.4 µM [inhibitor, partial curve]
